# Screen size: about 310,000 compounds; about 2,200 (0.71%) showed an effect of 50% or more. Effects have a minus sign here. The list shows a part of the results.
# Molecular target: human ether-à-go-go-related gene (hERG) potassium channel (human, UniProt Q12809)
# Test: primary screen, population patch clamp on CHO cells stably expressing hERG
# human ether-à-go-go-related gene (hERG) potassium channel, sequence (Q12809 whole entry, looked up): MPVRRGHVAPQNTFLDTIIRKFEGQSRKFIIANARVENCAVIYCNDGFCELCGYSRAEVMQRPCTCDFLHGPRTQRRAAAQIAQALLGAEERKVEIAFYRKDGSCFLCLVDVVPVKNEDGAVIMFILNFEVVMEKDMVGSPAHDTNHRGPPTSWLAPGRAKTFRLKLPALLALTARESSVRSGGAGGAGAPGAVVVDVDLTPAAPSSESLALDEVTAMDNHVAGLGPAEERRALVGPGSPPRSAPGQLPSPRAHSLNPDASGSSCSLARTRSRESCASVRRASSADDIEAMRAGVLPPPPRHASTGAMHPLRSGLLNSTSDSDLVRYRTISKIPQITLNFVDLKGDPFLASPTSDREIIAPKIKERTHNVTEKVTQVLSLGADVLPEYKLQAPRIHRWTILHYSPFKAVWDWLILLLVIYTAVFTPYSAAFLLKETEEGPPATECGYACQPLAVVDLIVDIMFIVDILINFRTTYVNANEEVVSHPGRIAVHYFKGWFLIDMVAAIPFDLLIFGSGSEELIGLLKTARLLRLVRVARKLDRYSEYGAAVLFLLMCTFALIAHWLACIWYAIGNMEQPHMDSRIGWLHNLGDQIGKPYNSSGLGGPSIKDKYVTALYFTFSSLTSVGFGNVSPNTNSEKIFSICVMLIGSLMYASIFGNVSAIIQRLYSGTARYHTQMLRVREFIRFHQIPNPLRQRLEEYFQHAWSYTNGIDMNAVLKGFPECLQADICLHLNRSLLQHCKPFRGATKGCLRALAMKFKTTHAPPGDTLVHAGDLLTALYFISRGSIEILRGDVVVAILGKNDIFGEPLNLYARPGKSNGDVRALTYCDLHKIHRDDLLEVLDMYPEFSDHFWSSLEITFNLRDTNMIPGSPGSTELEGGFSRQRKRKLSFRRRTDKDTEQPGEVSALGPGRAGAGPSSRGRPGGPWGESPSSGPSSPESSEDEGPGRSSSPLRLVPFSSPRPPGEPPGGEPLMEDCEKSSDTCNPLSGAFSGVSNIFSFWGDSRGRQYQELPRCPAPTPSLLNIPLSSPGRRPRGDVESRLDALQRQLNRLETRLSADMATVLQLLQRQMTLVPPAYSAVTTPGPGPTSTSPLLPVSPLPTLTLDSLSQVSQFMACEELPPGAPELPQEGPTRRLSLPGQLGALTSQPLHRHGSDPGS
row,Compound,"hERG current change (%, negative = inhibition) at 1uM [%]"
1,Br.C=CCn1c(=N)n(CC(=O)c2cccc([N+](=O)[O-])c2)c2ccccc21,-22.6
2,Nc1nc(CCl)nc(Nc2ccccc2)n1,17.8
3,COc1cccc(C(=O)NCCSc2ccc(F)cc2)c1,13.4
4,O=C(CSCc1c(Cl)cccc1Cl)Nc1cccnc1,0.202
5,COc1cc(C)c(Cl)c(C)c1S(=O)(=O)NCc1ccc2c(c1)OCO2,11.5
6,O=C(O)c1cncc(C#Cc2ccccc2)c1,14.4
7,COc1ccc(/C=N/Nc2ccc(C(=O)O)cc2)cc1Br,14.2
8,CSc1ccccc1NC(=O)COC(=O)CSc1ccc(C)cc1,8.78
9,O=C1C(C2=NC(c3ccccn3)C3C(=O)N(c4ccccc4)C(=O)C23)=C(O)c2ccccc21 (centres unmarked),6.22
10,Cc1cccc(-c2cc(C(=O)NCc3ccccn3)c3ccccc3n2)c1,8.69
11,CCC1CN(C(=O)NCc2ccc(C)cc2)c2ccccc2O1 (centres unmarked),20.8
12,COc1cccc(CNC(=O)CCS(=O)(=O)c2cccc3nonc23)c1,15
13,COc1ccc(NC(=O)CCNS(=O)(=O)c2cccc(C(C)=O)c2)cc1S(N)(=O)=O,11.8
14,COC(=O)C1=C(c2ccc(C(C)=O)cc2)C[C@@H]2CC[C@H]1N2C,5.94
15,CC(=O)N1CCN(C(=O)COc2ccc(Br)cc2)CC1,3.21
16,CC1=C(C(=O)Nc2ccc(C)cc2C)C(c2ccc(Cl)cc2)n2nc(C(=O)OC(C)C)nc2N1 (centres unmarked),11.9
17,CC1CCc2sc3ncnc(N4CCN(CCO)CC4)c3c2C1 (centres unmarked),-0.367
18,COc1cccc(NC(=O)N2CCCC2C(=O)Nc2cc(C)ccc2OC)c1 (centres unmarked),11.6
19,CSc1nc2ccc(NC(=O)C3=NNC(=O)CC3)cc2s1,16.1
20,O=C(CCCN1C(=O)c2ccccc2C1=O)NCCc1ccc(OC(F)F)cc1,-29.4
21,O=c1[nH]c(=S)[nH]c2nc(-c3cccs3)cc(C(F)(F)F)c12,15.4
22,CCCSc1ccc(C(=O)Nc2ccc(F)cc2F)cn1,5.11

row,Compound,"hERG current change (%, negative = inhibition) at 1uM [%]"
1,CC(=O)c1ccc(OCC(O)CN2CCN(S(=O)(=O)c3c(C)c(C)cc(C)c3C)CC2)cc1 (centres unmarked),17
2,O=C(Nc1ccc(F)cc1)N(CCCN1CCOCC1)Cc1cc2cc3c(cc2[nH]c1=O)OCCO3,9.34
3,COc1cccc(C(=O)Nc2nnc(C(C)C)s2)c1,10.3
4,COc1cc(/C=C/c2c([N+](=O)[O-])c(=O)n(C)c(=O)n2C)cc(OC)c1OC,5.97
5,CC(=O)c1ccc(NC(=O)C(=O)c2cn(CC(=O)N3CCCCC3)c3ccccc23)cc1,12.8
6,COC(=O)c1cc(CSc2ncnc3sccc23)oc1C,7.03
7,CC(Oc1ccc(F)cc1)C(=O)Nc1ccccc1C(=O)NC1CC1 (centres unmarked),0.331
8,CNCC(C)COc1ccccc1OCc1ccccc1.O=C(O)/C=C\C(=O)O (centres unmarked),-0.183
9,Cc1ccccc1-c1cc(-c2ccccc2O)on1,6.66
10,NC(=O)[C@@H]1CCCN1Cc1nc(-c2ccccc2)no1,6.67
11,N#C/C(=C\c1cn[nH]c1-c1ccccc1)C(=O)NC1CCCCCC1,6.75
12,CCCc1nc2sc3c(=O)n(N)cnc3c2c2c1CCCC2,10.9
13,Cc1[nH]n(-c2ccccc2)c(=O)c1N=Nc1c(Cl)cccc1Cl,13.7
14,CCn1cc(C(=O)NCc2ccc3c(c2)OCO3)c(=O)c2cc(S(=O)(=O)N3CCOCC3)ccc21,0.795
15,CCOC(=O)NC(NCc1ccccc1Cl)(C(F)(F)F)C(F)(F)F,11.1
16,CCNc1c(NC(=O)c2ccc3c(c2)OCO3)c(=O)oc2ccccc12,15
17,CCOC(=O)Nc1ccc(S(=O)(=O)N2CCC(C)CC2)cc1,5.78
18,CCC(C)(C)NC(=O)C1c2ccccc2Oc2ccccc21,16.1
19,CCN(CC)C(=O)c1ccc(Cn2cc([N+](=O)[O-])cn2)o1,3.35
20,CC(=O)Nc1ccc(C2C(=O)c3ccccc3C2=O)cc1,16.4
21,COc1cccc(-c2nc(COc3ccc(Cl)cc3Cl)no2)c1,13.2
22,O=C(c1cccc(Cl)c1)N1CCC2(CC1)NCCc1[nH]cnc12,19.8

row,Compound,"hERG current change (%, negative = inhibition) at 1uM [%]"
1,O=C(CSc1ncnc2sc3c(c12)CCCC3)c1ccco1,4.23
2,CCn1c(=S)sc2nc(C)sc21,14.4
3,CCC(=O)N1CCCc2cc(S(=O)(=O)N3CCN(C4CCCCC4)CC3)ccc21,4.18
4,C/C(=C\c1ccco1)CN1CCC(N2CCC(C(=O)N3CCOCC3)CC2)CC1,-23.3
5,Cc1ccccc1NC(=O)Cn1nc(-c2ccccc2)nc1-c1ccccc1,-0.709
6,CC(=O)c1cccc(S(=O)(=O)N(CCCO)Cc2cc3ccc(C)cc3[nH]c2=O)c1,2.37
7,CC(Sc1nc(-c2ccccc2)cc(C(F)(F)F)n1)C(=O)Nc1sc2c(c1C(N)=O)CCC2 (centres unmarked),13.6
8,COc1ccc(/C=N/NC(=O)CNC(=O)c2ccc(S(=O)(=O)N3CCOCC3)cc2)c(OC)c1,-1.11
9,Cc1cc(C)c(S(=O)(=O)c2ccccc2C)c(OCCN(C)C)n1,6.5
10,C/C=C(\C)C(=O)NCCN1C2=NC[C@@H](C)N2C[C@H]1Cc1ccc(O)cc1,9.7
11,O=C(/C=C/c1ccco1)N1CCN(C/C=C/c2ccccc2)CC1,-9.04
12,Cc1ccccc1N(CC(=O)NCCSCc1ccccc1)S(C)(=O)=O,6.37
13,O=C(c1ccc2c(=O)n(Cc3ccccc3Cl)c(=S)[nH]c2c1)N1CCOCC1,13
14,CCN(Cc1nc2cc(Cl)ccc2c(=O)[nH]1)C(=O)c1cccc(OCc2c(C)noc2C)c1,0.812
15,COc1ccc(OC)c(C2NC(=O)CCC2[N+](=O)[O-])c1 (centres unmarked),10.9
16,Cc1nc(-c2ccccn2)nc(SCC(=O)N2CCOCC2)c1Cl,10.7
17,O=C(N/N=C/c1c[nH]c2ccc(Br)cc12)c1ccc2c(c1)OCO2,19.5
18,Cc1cc(/C=N\NC(=O)CC(=O)NC2CCCCC2)c(C)n1-c1cccc(Cl)c1Cl,-1.34
19,COCC1CCCN(C(=O)c2ccc3nc(Cc4cccc(Cl)c4)oc3c2)C1 (centres unmarked),9.38
20,CCc1nnc(NS(=O)(=O)c2ccc(NC(=O)c3cc(Cl)ccc3[N+](=O)[O-])cc2)s1,13.4
21,CS(=O)(=O)Nc1cccc(C2=NN(C(=O)CCCC(=O)O)C(c3cccs3)C2)c1 (centres unmarked),7.78
22,CNc1oc(C)nc1S(=O)(=O)c1ccc(C)cc1,11.2

row,Compound,"hERG current change (%, negative = inhibition) at 1uM [%]"
1,COc1ccccc1NS(=O)(=O)c1ccc2nc(CCl)[nH]c2c1,16.3
2,Clc1ccc(Nc2ncnc3c2nnn3Cc2ccccc2)cc1,7.39
3,C/C(=N\NC(=O)c1ccc(Cn2cc(Br)cn2)o1)c1cccc(NC(=O)C(C)C)c1,-6.97
4,COc1ccc2occ(C(=O)c3ccc(N)cc3)c2c1,6.26
5,Cc1cccc(-n2nc(C(=O)Nc3ccccc3)n3c(=O)cc(-c4ccccc4)nc23)c1,7.7
6,CC(=O)Oc1ccc(-c2ccc(C(=O)Nc3cccc(S(=O)(=O)N4CCOCC4)c3)cc2)cc1,18.2
7,Cc1cc(C)cc(C(=O)OCC(=O)NCCNC(=O)COC(=O)c2cc(C)cc(C)c2)c1,13.8
8,COC(=O)CN1C(=O)C(C)(C)Oc2ccc(C(=O)Nc3ccccc3F)cc21,13.4
9,COc1ccc(NC(=O)Cn2c(=O)n(-c3ccccc3)c(=O)c3oc4ccccc4c32)c(OC)c1,6.57
10,CCC(=O)Nc1sc(C(=O)Nc2ccccc2OC)c(C)c1C(=O)OC,10.2
11,CCOC(=O)c1ccccc1NC(=O)Cn1c(-c2nonc2N)nc2ccccc21,8.83
12,O=C(NC(C1CC1)C1CC1)C1CCC(=O)N(CCCN2CCCC2=O)C1 (centres unmarked),5.64
13,OCCN(Cc1ccccc1)Cc1ccc(F)c(F)c1,1.31
14,CN(C)c1ccc(-c2nnc(-c3ccccc3F)o2)cc1,3.55
15,COc1ccccc1N(C)S(=O)(=O)c1ccc(C(=O)OCC(=O)N2CCC2)cc1,11.4
16,O=C(c1ccccc1)N1CCN(c2n[nH]c(=O)[nH]c2=O)CC1,5.03
17,COc1ccc(-n2ncc3c(N4CCCCC4)ncnc32)cc1,4.93
18,CCN(CC)C(=O)CSc1nnc(-c2ccc(S(=O)(=O)NCc3ccccc3Cl)cc2)o1,-2.35
19,O=C(NCC[C@@H]1C[C@@H]2C=C[C@H]1C2)c1cc(COc2ccc(F)cc2F)on1,11.1
20,O=C(c1ccc(N2CN(C(=O)c3ccco3)c3nc4ccccc4nc32)cc1)N1CCOCC1,-1.09
